{"source": "the BET-seq Pho4 binding data (Le et al. 2018)", "note": "The list shows a part of the results. Values were computed here from the reads of four pooled replicates and scatter widely."}
{"target": "T1, Pho4 (S. cerevisiae) (UniProt P07270)", "T1 sequence": "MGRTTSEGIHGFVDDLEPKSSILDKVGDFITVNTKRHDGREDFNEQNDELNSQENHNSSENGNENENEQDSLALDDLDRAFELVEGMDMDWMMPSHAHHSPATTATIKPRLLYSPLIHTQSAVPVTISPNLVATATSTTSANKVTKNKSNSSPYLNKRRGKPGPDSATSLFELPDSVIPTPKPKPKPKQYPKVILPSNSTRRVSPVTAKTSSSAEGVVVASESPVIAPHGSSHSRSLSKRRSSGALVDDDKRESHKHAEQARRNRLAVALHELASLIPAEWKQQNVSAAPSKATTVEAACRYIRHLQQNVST", "assay": "relative binding free energy (BET-seq); higher = weaker binding", "details": "reference: library average", "units": {"relative binding free energy": "kcal/mol"}}
{"sequence": "GTTAGCACGTGTCGCT", "relative binding free energy": 0.09}
{"sequence": "CTGTTCACGTGATGGG", "relative binding free energy": 0.15}
{"sequence": "AAGTTCACGTGAGCTG", "relative binding free energy": 0.53}
{"sequence": "GTTTGCACGTGGGACG", "relative binding free energy": 0.09}
{"sequence": "TGTTACACGTGTGATG", "relative binding free energy": 0.19}
{"sequence": "CGGTACACGTGAGTAT", "relative binding free energy": 0.42}
{"sequence": "ATCTTCACGTGTTGAG", "relative binding free energy": 0.36}
{"sequence": "TAGGCCACGTGTGCGT", "relative binding free energy": -0.17}
{"sequence": "GTGGTCACGTGGGGCC", "relative binding free energy": 0.11}
{"sequence": "AGTGTCACGTGATTGA", "relative binding free energy": 0.21}
{"sequence": "AGTCTCACGTGGGAGT", "relative binding free energy": 0.13}
{"sequence": "TGGTACACGTGATGTG", "relative binding free energy": 0.15}
{"sequence": "AGGTACACGTGTACGT", "relative binding free energy": 0.04}
{"sequence": "TTTATCACGTGGGTGA", "relative binding free energy": 0.05}
{"sequence": "AATGTCACGTGCGTTT", "relative binding free energy": 0.13}
{"sequence": "GATTTCACGTGTGATG", "relative binding free energy": 0.31}
{"sequence": "TAGTGCACGTGGGGAA", "relative binding free energy": -0.24}
{"sequence": "GGACACACGTGTAGTG", "relative binding free energy": 0.1}
{"sequence": "GGGAACACGTGTGTAT", "relative binding free energy": 0.12}
{"sequence": "AGGAACACGTGAATGT", "relative binding free energy": 0.41}
{"sequence": "TATTGCACGTGTGGAC", "relative binding free energy": 0.01}
{"sequence": "TCTGTCACGTGGGCTT", "relative binding free energy": -0.03}
{"sequence": "TGAAACACGTGGTTTA", "relative binding free energy": -0.19}
{"sequence": "ATATGCACGTGGGGAA", "relative binding free energy": -0.1}
{"sequence": "CTTGACACGTGTAATT", "relative binding free energy": 0.21}
{"sequence": "TTTGGCACGTGGGATC", "relative binding free energy": -0.03}
{"sequence": "TAGATCACGTGCGGTA", "relative binding free energy": 0.18}
{"sequence": "GTTTTCACGTGTCATA", "relative binding free energy": 0.27}
{"sequence": "TTATTCACGTGTATTC", "relative binding free energy": 0.13}
{"sequence": "TTTGACACGTGTGTAC", "relative binding free energy": 0.08}
{"sequence": "ATGTACACGTGGATAG", "relative binding free energy": -0.14}
{"sequence": "TTCGGCACGTGAGGGA", "relative binding free energy": -0.09}
{"sequence": "TAACTCACGTGAGGGT", "relative binding free energy": 0.34}
{"sequence": "AGTTGCACGTGTCTAG", "relative binding free energy": 0.03}
{"sequence": "TATCGCACGTGATGTA", "relative binding free energy": 0.06}
{"sequence": "TGTATCACGTGGTGAT", "relative binding free energy": 0.08}
{"sequence": "GTAATCACGTGTTTTA", "relative binding free energy": 0.2}
{"sequence": "TCTAGCACGTGCGTGG", "relative binding free energy": -0.23}
{"sequence": "ATGCGCACGTGATGGA", "relative binding free energy": 0}
{"sequence": "AGGCTCACGTGGTGGT", "relative binding free energy": 0.1}
{"sequence": "GAATTCACGTGACTGG", "relative binding free energy": 0.6}
{"sequence": "GAAGTCACGTGATGTG", "relative binding free energy": 0.33}
{"sequence": "ATTTTCACGTGGTCAA", "relative binding free energy": 0.24}
{"sequence": "AGCTGCACGTGGTGGT", "relative binding free energy": -0.08}
{"sequence": "AATGGCACGTGTAGTG", "relative binding free energy": -0.03}
{"sequence": "ATGTGCACGTGAAGGA", "relative binding free energy": 0.25}
{"sequence": "TTTTCCACGTGGTCTA", "relative binding free energy": 0.02}
{"sequence": "TTGTTCACGTGGAGCC", "relative binding free energy": 0.31}
{"sequence": "GCTGGCACGTGTTGGC", "relative binding free energy": -0.05}
{"sequence": "GGTAGCACGTGGGCAA", "relative binding free energy": -0.16}
{"sequence": "GTATGCACGTGCGCGG", "relative binding free energy": -0.22}
{"sequence": "TTGGCCACGTGTTGTA", "relative binding free energy": -0.05}
{"sequence": "TAGACCACGTGGGGGT", "relative binding free energy": -0.35}
{"sequence": "TGAGTCACGTGGAAAT", "relative binding free energy": 0.18}
{"sequence": "ATTAGCACGTGTGTAA", "relative binding free energy": 0.02}
{"sequence": "GGAAACACGTGTGCGT", "relative binding free energy": 0.06}
{"sequence": "TTAATCACGTGGGGGG", "relative binding free energy": 0.05}
{"sequence": "TTGAGCACGTGGATAT", "relative binding free energy": -0.23}
{"sequence": "AGCTGCACGTGGTTAT", "relative binding free energy": -0.13}
{"sequence": "ATTAGCACGTGCGTCT", "relative binding free energy": 0}
{"sequence": "ATCTACACGTGTTGAG", "relative binding free energy": 0.21}
{"sequence": "GGTCACACGTGGGAGA", "relative binding free energy": 0.17}
{"sequence": "TTCGGCACGTGCGTTA", "relative binding free energy": -0.13}
{"sequence": "CTATTCACGTGTGTGG", "relative binding free energy": 0.28}
{"sequence": "TGGAGCACGTGGACGT", "relative binding free energy": -0.13}
{"sequence": "AGTCTCACGTGTTGTT", "relative binding free energy": 0.17}
{"sequence": "AGCTGCACGTGAGGTG", "relative binding free energy": 0.12}
{"sequence": "GTGATCACGTGGTGTT", "relative binding free energy": 0.07}
{"sequence": "GACGTCACGTGGGTGG", "relative binding free energy": 0.12}
{"sequence": "CGAGTCACGTGGCGTT", "relative binding free energy": -0.05}
{"sequence": "GAATACACGTGATGTT", "relative binding free energy": 0.28}
{"sequence": "ATGTGCACGTGAGCTT", "relative binding free energy": -0.02}
{"sequence": "CAGGGCACGTGCGTTG", "relative binding free energy": -0.2}
{"sequence": "TGGTTCACGTGTAGAG", "relative binding free energy": 0.29}
{"sequence": "CATAGCACGTGGTATG", "relative binding free energy": -0.19}
{"sequence": "TGTGTCACGTGGTTCC", "relative binding free energy": 0}
{"sequence": "GGGTTCACGTGGCGTT", "relative binding free energy": 0.25}
{"sequence": "GAGGACACGTGGGTAG", "relative binding free energy": 0}
{"sequence": "AGGGACACGTGGAGGC", "relative binding free energy": 0.08}
{"sequence": "TATCGCACGTGTGTTC", "relative binding free energy": -0.01}
{"sequence": "GTATTCACGTGGAGGT", "relative binding free energy": 0.15}
{"sequence": "TCGGGCACGTGCGTTG", "relative binding free energy": -0.11}
{"sequence": "GAAGGCACGTGTAAAG", "relative binding free energy": 0.11}
{"sequence": "AGTGCCACGTGGGATA", "relative binding free energy": -0.22}
{"sequence": "ATTTGCACGTGCAGTA", "relative binding free energy": -0.03}
{"sequence": "AGTGTCACGTGGTCAG", "relative binding free energy": -0.03}
{"sequence": "GATATCACGTGTTAGG", "relative binding free energy": 0.29}
{"sequence": "GGGATCACGTGTCGGG", "relative binding free energy": 0.22}
{"sequence": "TGCTCCACGTGTTGTG", "relative binding free energy": -0.03}
{"sequence": "TTATACACGTGTACGT", "relative binding free energy": -0.08}
{"sequence": "CGGCTCACGTGTGTGG", "relative binding free energy": 0.18}
{"sequence": "GAGTGCACGTGGGCCG", "relative binding free energy": -0.21}
{"sequence": "TGTCGCACGTGTTATG", "relative binding free energy": -0.06}
{"sequence": "GATATCACGTGAAGTG", "relative binding free energy": 0.42}
{"sequence": "TACATCACGTGGGAGT", "relative binding free energy": -0.04}
{"sequence": "ATTTTCACGTGGGATG", "relative binding free energy": 0.16}
{"sequence": "TTGTTCACGTGTGTGT", "relative binding free energy": 0.29}
{"sequence": "TGTGGCACGTGGATGA", "relative binding free energy": -0.08}
{"sequence": "TTTCGCACGTGTTTTC", "relative binding free energy": 0.19}
{"sequence": "ATGGGCACGTGATTTG", "relative binding free energy": -0.05}
{"sequence": "TGCGGCACGTGTTAGT", "relative binding free energy": -0.05}
{"sequence": "GTGGCCACGTGTTGGG", "relative binding free energy": 0.08}
{"sequence": "AAGGGCACGTGAGAGA", "relative binding free energy": 0.26}
{"sequence": "ATGTGCACGTGCGTGA", "relative binding free energy": -0.23}
{"sequence": "CTAAACACGTGGGGTT", "relative binding free energy": -0.17}
{"sequence": "TGGGCCACGTGGGCGA", "relative binding free energy": -0.17}
{"sequence": "TGTTGCACGTGGATTG", "relative binding free energy": 0.12}
{"sequence": "CGTGGCACGTGCGGTT", "relative binding free energy": -0.11}
{"sequence": "ATCTGCACGTGATGTG", "relative binding free energy": 0.05}
{"sequence": "TGTAGCACGTGGTAGG", "relative binding free energy": -0.15}
{"sequence": "TATGTCACGTGGTCAA", "relative binding free energy": 0.01}
{"sequence": "GGGTTCACGTGGGGAA", "relative binding free energy": 0.32}
{"sequence": "TGTGACACGTGAGTCT", "relative binding free energy": 0.1}
{"sequence": "TCTGGCACGTGGTCGG", "relative binding free energy": -0.18}
{"sequence": "AGTTTCACGTGTGAAG", "relative binding free energy": 0.11}
